{
  "source": "paper PMC6919601",
  "about": "“Identification of Plasmodium dipeptidyl aminopeptidase allosteric inhibitors by high throughput screening” (PLoS ONE, 2019)",
  "note": "Hit rate of the full screen: of about 110,000 compounds, about 230 (0.21%) showed an effect of 50% or more. The list shows a part of the results.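 Further: 30 min substrate incubation versus DMSO and 10 µM JCP410 controls.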",
  "data": [
    {"molecular_target": "DPAP1 (Plasmodium falciparum, UniProt Q8IIJ9)", "sequence (Q8IIJ9 whole entry, looked up)": "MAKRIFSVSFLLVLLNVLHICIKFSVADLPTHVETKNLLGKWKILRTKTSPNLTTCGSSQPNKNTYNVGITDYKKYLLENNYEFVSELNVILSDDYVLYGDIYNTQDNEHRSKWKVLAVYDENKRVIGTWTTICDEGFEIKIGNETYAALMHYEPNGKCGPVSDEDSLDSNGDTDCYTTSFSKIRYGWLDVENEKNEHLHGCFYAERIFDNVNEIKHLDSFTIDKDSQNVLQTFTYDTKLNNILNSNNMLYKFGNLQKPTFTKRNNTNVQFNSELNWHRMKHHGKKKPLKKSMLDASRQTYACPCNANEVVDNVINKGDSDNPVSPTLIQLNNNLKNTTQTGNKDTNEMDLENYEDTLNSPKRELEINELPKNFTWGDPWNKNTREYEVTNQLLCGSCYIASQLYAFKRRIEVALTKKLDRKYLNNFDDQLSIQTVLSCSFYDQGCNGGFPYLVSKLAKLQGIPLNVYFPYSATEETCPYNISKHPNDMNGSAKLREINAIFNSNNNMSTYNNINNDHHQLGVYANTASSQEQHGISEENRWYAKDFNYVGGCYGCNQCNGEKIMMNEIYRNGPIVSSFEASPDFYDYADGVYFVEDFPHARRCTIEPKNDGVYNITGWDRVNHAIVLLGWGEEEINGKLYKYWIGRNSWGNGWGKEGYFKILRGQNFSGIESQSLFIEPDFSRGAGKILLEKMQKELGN", "assay": "primary screen, percent inhibition; read by cleavage of a fluorogenic dipeptide substrate; higher = more effect of the substance", "design": "species or system P. falciparum D10 trophozoite lysates; single well", "units": {"% Inhibition @ 10 uM": "%"}, "values": [
      {"smiles": "COc1ccc(NCc2cc(Br)c(OC)c(OC)c2)cc1", "% Inhibition @ 10 uM": 6.01},
      {"smiles": "CCOc1ccc2nc(N3CCC(C(=O)NCCN4CCCCC4C)CC3)sc2c1", "note": "(stereo not drawn)", "% Inhibition @ 10 uM": 0.137},
      {"smiles": "c1ccc(OCCCCn2cnc3ccccc32)cc1", "% Inhibition @ 10 uM": 4.3},
      {"smiles": "Cc1c(C(=O)NCc2cccnc2)sc2nc(-c3ccc(F)cc3)cn12", "% Inhibition @ 10 uM": 1.55},
      {"smiles": "CC(C)CNS(=O)(=O)c1ccc(CCC(=O)N2CCN(c3ccccc3)CC2)cc1", "% Inhibition @ 10 uM": 3.49},
      {"smiles": "COc1ccc2c(c1)sc1nc(C)c(CCO)c(=O)n12", "% Inhibition @ 10 uM": 5.42},
      {"smiles": "COc1ccc(C(=O)NC2CCCCC2)cc1", "% Inhibition @ 10 uM": 2.36},
      {"smiles": "CC(C)COC(=O)C1CN1C(C)(C)CO", "note": "(stereo not drawn)", "% Inhibition @ 10 uM": -1.59},
      {"smiles": "Cc1ccc(S(=O)(=O)NCC(=O)N2CCN(c3ccccc3F)CC2)cc1", "% Inhibition @ 10 uM": 3.91},
      {"smiles": "Cc1cc2ccccc2n1CCNC(=O)c1cc2ccccc2oc1=O", "% Inhibition @ 10 uM": 0.8},
      {"smiles": "O=C1CC(N2CCCC2)C(=O)N1c1ccc(F)cc1", "note": "(stereo not drawn)", "% Inhibition @ 10 uM": -3.19},
      {"smiles": "CC(C)(C)OC(=O)N1CCN(c2ncnc3[nH]cnc23)CC1", "% Inhibition @ 10 uM": 3.51},
      {"smiles": "CCOc1cccc(N2C(=O)CC(NCCc3ccc(S(N)(=O)=O)cc3)C2=O)c1", "note": "(stereo not drawn)", "% Inhibition @ 10 uM": 6.79},
      {"smiles": "CC1=C(C(=O)Nc2ccc(C)cn2)C(c2c(F)cccc2Cl)C2=C(O)CC(C)(C)CC2=N1", "note": "(stereo not drawn)", "% Inhibition @ 10 uM": 4.11},
      {"smiles": "Cc1nc2scc(C)n2c(=O)c1S(=O)(=O)NCCC1=CCCCC1", "% Inhibition @ 10 uM": 3.59},
      {"smiles": "C=CCn1c(=O)c(C(=O)Nc2ccc(Cl)cn2)c(O)c2ccccc21", "% Inhibition @ 10 uM": -3.71},
      {"smiles": "O=C(O)c1cccn1-c1nnc(N2CCN(C3CCCCC3)CC2)s1", "% Inhibition @ 10 uM": 3.29},
      {"smiles": "O=C1/C(=C/c2ccco2)N(Cc2ccccc2)Cc2ccccc21", "% Inhibition @ 10 uM": -2.64},
      {"smiles": "COc1ccc(C2C(C#N)=C(N)Oc3cc(O)ccc32)cc1Br", "note": "(stereo not drawn)", "% Inhibition @ 10 uM": -6.82},
      {"smiles": "CCn1cc(C(=O)N(CCCN2CCOCC2)Cc2ccco2)c(=O)c2ccc(C)nc21", "% Inhibition @ 10 uM": 2.8},
      {"smiles": "O=C(c1cnn2c3c(cnc12)CCCCC3)N1CCc2ccccc2C1", "% Inhibition @ 10 uM": 17.8},
      {"smiles": "CC(C)(C)c1cc(CN2CCN(c3ccccc3F)CC2)cc(C(C)(C)C)c1O", "% Inhibition @ 10 uM": 2.33},
      {"smiles": "CCn1ncc(/C=c2/sc3n(c2=O)C(c2ccccc2)C(C(=O)Nc2ccccc2)=C(C)N=3)c1C", "note": "(stereo not drawn)", "% Inhibition @ 10 uM": 0.235},
      {"smiles": "O=C(/N=C1\\S/C(=C/c2cccnc2)C(=O)N1c1ccccc1)c1ccccc1", "% Inhibition @ 10 uM": 5.94},
      {"smiles": "CC1CCN(c2ncnc3sc4c(c23)CCC(C)C4)CC1", "note": "(stereo not drawn)", "% Inhibition @ 10 uM": -1.06},
      {"smiles": "O=C(CSc1nc2ccc(N3C(=O)c4ccccc4C3=O)cc2s1)N1CCOCC1", "% Inhibition @ 10 uM": -3.9},
      {"smiles": "Cc1sc2ncn(CC(=O)NCC(=O)NCCN3CCOCC3)c(=O)c2c1C", "% Inhibition @ 10 uM": 2.8}
    ]}
  ]
}
